The whole screen tested about 52,000 compounds, of which about 1,700 (3.3%) were called active. Rule as the data show it: active = survival mostly below about 52% (no sharp cut-off); inactive = mostly above about 56%. The list shows a part of the results.
Tested on: Wild type
Assay: S. aureus survival, RN4220 and DeltatarO strains – OD600, teichoic acid synthesis inhibitors, primary screen (AID 463173)
Settings: S. aureus RN4220 wild type/DeltatarO growth, OD600, 18 h, stronger effect = lower value, screened at 18.75 µg/mL (by protocol)

SMILES	survival
CC(C)(C)c1ccc(OCCn2ccccc2=O)cc1	inactive: 103%
Cc1c(Cl)cccc1NC(=O)C(C)n1c(=O)cc(-c2ccccc2)c2c(C)nn(C)c21 (centres undefined)	inactive: 91%
CCc1ccc(NC(=O)c2sc3nc(C)c(Cl)c(C)c3c2N)cc1	inactive: 103%
O=C(Cn1c(-c2cccs2)cc2cc(Cl)ccc21)N1CCN(c2ccccc2)CC1	inactive: 80%
Cc1cccc(N(CC(=O)O)S(C)(=O)=O)c1	inactive: 100%
O=C(Cn1c(=O)c2cc(Cl)ccc2n2nncc12)Nc1ccccc1	inactive: 68%
Cc1ccc(NC(=O)C2CCCN2S(=O)(=O)c2ccc3c(c2)CCCC(=O)N3)cc1C (centres undefined)	inactive: 66%
COc1ccc(-c2cccc(NS(=O)(=O)c3cc(C)c(OC)c(C)c3C)c2)nn1	inactive: 72%
CCOc1ccccc1C(=O)N1CC(=O)Nc2ccc(Cl)cc2C1c1ccccc1 (centres undefined)	inactive: 94%
Cc1nnc(NC(=O)C2CCCN(c3ncccn3)C2)s1 (centres undefined)	inactive: 103%
C=CCC(CC=C)(CNC(=O)C(=O)Nc1cccc(C(F)(F)F)c1)c1ccccc1	inactive: 120%
O=C(CC(c1cccs1)N1Cc2ccccc2C1=O)Nc1ccc(F)c(Cl)c1 (centres undefined)	inactive: 77%
CC(=O)Nc1cc(C(=O)NCc2ccc(C)cc2)ccc1Sc1ccc(C)cc1	inactive: 72%
COc1ccc(Cl)cc1NC(=O)CN(C)S(=O)(=O)c1ccc2c(c1)CCCN2C(C)=O	inactive: 80%
CC(CNC(=O)Cn1ccc2cc(S(=O)(=O)N3CCCCCC3)ccc21)c1ccccc1 (centres undefined)	inactive: 120%
CCOC(=O)c1ccc(N2CCN(c3cccc(Cl)c3)CC2)c(NC(=O)Nc2ccc(OC)cc2OC)c1	inactive: 90%
CCc1ccc(-c2nc(CN3CCCC(C(=O)N4CCN(c5cc(Cl)ccc5C)CC4)C3)c(C)o2)cc1 (centres undefined)	inactive: 84%
CCOC(=O)CSc1nc2ccccc2c(=O)n1CCc1ccc(OC)c(OC)c1	inactive: 124%
CC(=O)NC(NC(C)=O)c1ccc2c(c1)OCO2	inactive: 96%
CCC1CN(C(=O)N2CCC(C(=O)NCCN(CC)CC)CC2)c2ccccc2O1 (centres undefined)	inactive: 88%
COc1ccc(-c2onc(C)c2C)cc1S(=O)(=O)NCC1CCN(Cc2ccccc2F)CC1	inactive: 70%
Cc1cccc(-n2c(=O)c3c(c4cc(C)ccc4n3C)n(CC(=O)NCCC3=CCCCC3)c2=O)c1	inactive: 80%
COc1ccc(-c2noc(-c3cccnc3NCc3ccco3)n2)cc1	inactive: 128%
CCc1cccc(C)c1NC(=O)CSc1nc(C)cc(C)c1C(=O)Nc1ccccc1	inactive: 77%
